Assay results reported in PMC4336329 (PLoS ONE, 2015).
Screen size: about 310,000 compounds; about 2,200 (0.71%) showed an effect of 50% or more. The effect is printed as a negative number. The list shows a part of the results.

Molecular target: human ether-à-go-go-related gene (hERG) potassium channel (human, UniProt Q12809)
Assay: primary screen, population patch clamp on CHO cells stably expressing hERG

Chain of human ether-à-go-go-related gene (hERG) potassium channel (Q12809 whole entry, looked up): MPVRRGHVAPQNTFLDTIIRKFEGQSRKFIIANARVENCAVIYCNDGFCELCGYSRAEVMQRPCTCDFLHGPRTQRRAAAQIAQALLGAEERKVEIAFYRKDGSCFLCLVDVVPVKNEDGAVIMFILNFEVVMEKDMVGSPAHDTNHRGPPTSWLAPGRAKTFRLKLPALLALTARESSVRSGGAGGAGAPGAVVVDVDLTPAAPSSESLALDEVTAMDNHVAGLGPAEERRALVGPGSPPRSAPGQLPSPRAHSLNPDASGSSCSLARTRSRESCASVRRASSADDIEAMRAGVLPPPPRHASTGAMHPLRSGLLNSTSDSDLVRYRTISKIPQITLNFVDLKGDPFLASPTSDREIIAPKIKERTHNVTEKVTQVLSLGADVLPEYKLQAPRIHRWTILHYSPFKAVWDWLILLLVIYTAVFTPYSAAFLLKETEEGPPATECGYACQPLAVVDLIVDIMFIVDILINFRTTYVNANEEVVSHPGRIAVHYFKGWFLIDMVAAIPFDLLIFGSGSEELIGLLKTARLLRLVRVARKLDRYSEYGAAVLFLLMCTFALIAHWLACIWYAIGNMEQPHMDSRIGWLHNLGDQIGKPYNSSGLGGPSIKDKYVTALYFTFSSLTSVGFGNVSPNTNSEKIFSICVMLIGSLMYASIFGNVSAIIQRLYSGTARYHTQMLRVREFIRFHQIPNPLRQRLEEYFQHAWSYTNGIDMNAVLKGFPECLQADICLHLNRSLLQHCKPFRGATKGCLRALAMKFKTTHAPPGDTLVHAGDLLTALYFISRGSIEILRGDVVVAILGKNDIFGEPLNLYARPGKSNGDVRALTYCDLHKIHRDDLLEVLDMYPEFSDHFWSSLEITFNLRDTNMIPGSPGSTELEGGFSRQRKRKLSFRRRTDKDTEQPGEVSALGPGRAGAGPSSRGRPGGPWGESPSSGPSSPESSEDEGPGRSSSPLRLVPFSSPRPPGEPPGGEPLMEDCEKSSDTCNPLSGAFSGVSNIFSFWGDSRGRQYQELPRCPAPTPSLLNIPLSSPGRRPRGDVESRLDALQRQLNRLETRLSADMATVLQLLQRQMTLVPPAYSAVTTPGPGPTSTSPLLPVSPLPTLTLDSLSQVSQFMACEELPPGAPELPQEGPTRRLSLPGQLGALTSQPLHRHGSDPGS

Row | SMILES | hERG current change (%, negative = inhibition) at 1uM
1 | CCn1nc(NS(=O)(=O)c2ccccc2)c2cc3ccc(C)cc3nc21 | -1.21%
2 | Cc1ccc(C(=O)NC(NCc2ccccc2)C(Cl)(Cl)Cl)cc1 (stereo not drawn) | -1.59%
3 | Cc1cccc(NC(=O)CN2NS(=O)(=O)c3ccccc3C2=O)c1 | 2.98%
4 | CCOC(=O)CNc1nc(OCC#N)nc(N2CCOCC2)n1 | -0.975%
5 | O=C(Cn1cnc2ccccc2c1=O)c1ccc2c(c1)OCCO2 | 6.85%
6 | CCc1ccc(CNC(=O)C2CCN(S(=O)(=O)N3CCC(C)CC3)CC2)cc1 | 14.8%
7 | CS(=O)(=O)N1N=C(c2cccs2)CC1c1ccccc1O (stereo not drawn) | 14.8%
8 | O=C(Nc1ccc(Br)cc1F)c1ccncc1 | 1.5%
9 | CN1CCCN(C2C3CC4CC(C3)CC2C4)CC1 (stereo not drawn) | 13.5%
10 | N#CCCC12CCCCC1=Nc1ccccc12 (stereo not drawn) | 9.57%
11 | CCCCOc1ccc(C(=O)N/C(=C/c2cccc([N+](=O)[O-])c2)C(=O)O)cc1 | 12.7%
12 | CCOc1ccc(N2CC(C(=O)NCCc3ccccc3)CC2=O)cc1 (stereo not drawn) | 13.9%
13 | COc1ccc(-n2nc(C(=O)NCC(=O)N3CCN(c4cccc(Cl)c4)CC3)c3ccccc3c2=O)c(OC)c1 | 10.3%
14 | COc1cc(C(F)(F)F)c(C(=O)N(C)Cc2ccc(Cl)c(Cl)c2)cn1 | 8.59%
15 | CCCCC1=NN(C(=O)c2cccnc2)C(O)(C(F)(F)F)C1 (stereo not drawn) | 16.3%
16 | CC(C)Cn1c(N)c(C(=O)CSc2nc3ncc(Cl)cc3[nH]2)c(=O)n(C)c1=O | 10.4%
17 | CC(C)Oc1ccc(Cc2cnc(=S)[nH]c2N)cc1 | 10.2%
18 | COc1ccc(-c2n[nH]c(=S)n2-c2ccc(C)cc2)cc1 | 4.56%
19 | CCNc1nc(NC(C)C)nc(Oc2ccc(OCCOc3ccc(C)cc3)nn2)n1 | 0.311%
20 | CC1=[N+]([O-])C(C)(C)N(O)C1(C)C | 15.2%
21 | COc1ccccc1NS(=O)(=O)c1cccc(NC(=O)Nc2ccccc2)c1 | 11.1%
22 | CC1CCC(C(C)C)C(=O)/C1=C/c1ccc(N)cc1 (stereo not drawn) | 10.5%
23 | CCCC1CCC(c2ccc(C(=O)NN)cc2)CC1 (stereo not drawn) | 10.6%

Row | SMILES | hERG current change (%, negative = inhibition) at 1uM
24 | Cc1[nH]nc2c1C1(C(=O)N(Cc3ccc(Cl)cc3)c3ccccc31)C(C#N)=C(N)O2 (stereo not drawn) | 10.5%
25 | O=C(Nc1ccc(N=Nc2ccccc2)c(NC(=O)C2CCCO2)c1)C1CCCO1 (stereo not drawn) | 9.09%
26 | CCS(=O)(=O)Nc1cccc(C(=O)O)c1 | 12.7%
27 | COc1ccc(/C=C/C(=O)Nc2cc(C(F)(F)F)ccc2Cl)cc1OC | 15.1%
28 | O=C(O)C1CCCN1C(=O)c1cccs1 (stereo not drawn) | 6.74%
29 | Cc1ccc(-n2c(O)c(C=NCC3CCCO3)c(=O)[nH]c2=O)c(C)c1 (stereo not drawn) | 12.8%
30 | CCc1ccc(C2=NNC(=Nc3cccc(S(=O)(=O)N(C)C)c3)SC2)cc1 | 6.95%
31 | O=C(CSc1nc2c(c(=O)n1-c1ccc(Cl)cc1)SCC2)NCC1CCCO1 (stereo not drawn) | 5.79%
32 | CN(Cc1cccc(Cl)c1)C(=O)C1CSC2(C)CCC(=O)N12 (stereo not drawn) | -0.379%
33 | COc1ccccc1-c1cc(C(F)(F)F)nc(NCc2cccs2)n1 | 7.85%
34 | CCOc1ccc(CCNC(=O)c2cc(C)nc3ccccc23)cc1OCC | -10.6%
35 | N#Cc1cnn2c(-c3cccc([N+](=O)[O-])c3)ccnc12 | -3.5%
36 | Cc1cc(NC(=O)c2ccc3c(c2)C(=O)N(CCC(C)C)C3=O)no1 | 5.53%
37 | COc1ccc(CCNS(=O)(=O)c2cccc3cccnc23)cc1OC | 8.59%
38 | Nc1c2nc(-c3ccccc3)[nH]c(=O)c2nc(=O)n1-c1ccccc1 | 13.1%
39 | CCCc1nnc(NC(=O)Nc2ccc(OC)cc2)s1 | 24.9%
40 | Cc1c(NC(=O)C2CC(c3ccc(F)cc3)=NO2)c(=O)n(-c2ccccc2)n1C (stereo not drawn) | 7%
41 | CN1/C(=C\C(=O)CSc2nnc(N)s2)C(C)(C)c2ccccc21 | 1.34%
42 | O=C(c1ccc(S(=O)(=O)N2CCOCC2)cc1)N(c1ccccc1)C1C=CS(=O)(=O)C1 (stereo not drawn) | 6.83%
43 | CCc1nnc(NC(=O)c2ccc3nc(CC)c(CC)nc3c2)s1 | 20%
44 | CCC1S/C(=C(\C#N)C(N)=O)N(c2ccc(F)cc2)C1=O (stereo not drawn) | 14%
45 | NS(=O)(=O)c1ccc(NC(=O)CSc2nnc(COc3ccccc3Cl)n2C2CC2)cc1 | 5.16%
46 | CC(CC#CCN1CCOCC1)OCCC#N (stereo not drawn) | 6.3%

Row | SMILES | hERG current change (%, negative = inhibition) at 1uM
47 | O=C(NC1CCC(O)CC1)c1ccc(NS(=O)(=O)c2cccc([N+](=O)[O-])c2)cc1 (stereo not drawn) | 12.1%
48 | COc1ccc(-c2coc3cc4oc(=O)cc(-c5ccccc5)c4cc23)cc1F | 3.73%
49 | COc1ccc(C(=O)N2CC3(C)CC2CC(C)(C)C3)cc1OC (stereo not drawn) | -8.4%
50 | CCCn1c(Cc2ccccc2)n[nH]c1=S | 18%
51 | CC(=O)c1ccc(NC(=O)C(C)OC(=O)c2ccc3c(c2)nc(C)n3-c2ccccc2)cc1 (stereo not drawn) | -2.28%
52 | Cc1ccc(-n2c(-c3ccc(Cl)cc3)n[nH]c2=S)c(C)c1 | 9.08%
53 | Cc1nn(CC(O)COc2ccc3c(c2)CCC3)c(C)c1Br (stereo not drawn) | 4.55%
54 | O=C(CSc1nc(-c2ccccc2)cs1)NCCN1C(=O)CSC1=O | 12.2%
55 | Cc1ccc(NC(=O)/C(=C\c2cccc(Br)c2)NC(=O)c2ccco2)cc1 | -5.37%
56 | CCCNC(=O)C(Cc1ccc(F)cc1)NC(=O)c1ccc(C#N)cc1 (stereo not drawn) | -17.5%
57 | CC[C@@H](C)[C@H](NC(=O)CCc1c(C)c2cc3c4c(oc3c(C)c2oc1=O)CCCC4)C(=O)O | 11.3%
58 | COc1ccc([C@H]2CC(=O)C=C(c3ccc(OC)c(OC)c3)C2)cc1 | 11.9%
59 | O=C(CN1CCCCCC1)Nc1cc(C(F)(F)F)ccc1Cl | 5.62%
60 | CCn1c(SCC(=O)Nc2ccc(NC(=O)c3ccco3)cc2)nnc1-c1cccs1 | 11.7%
61 | CCOC(=O)CN(C)Cc1cn[nH]c1-c1ccc2cc(OC)ccc2c1 | 10.9%
62 | COc1ccc(CCc2nnc(CCC(=O)NCc3cc(C(C)C)no3)o2)cc1 | 13.9%
63 | CCOC(=O)c1cnc2c(OC)cccc2c1Oc1ccccc1 | 11%
64 | N/C(=N\OC(=O)C12CC3CC(CC(C3)C1)C2)c1ccccn1 | 3.94%
65 | COCCN(C(=O)c1csnn1)C(C(=O)NC1CCCC1)c1ccc(C)cc1 (stereo not drawn) | 7.06%
66 | CCOCCCNC(=S)N1CCCN(c2nc3cc(C)c(C)cc3cc2C#N)CC1 | -1.71%
67 | COc1ccc(N2CCN(CC(=O)c3ccc(O)cc3O)CC2)cc1 | 22.8%
68 | CCOc1ccc(-c2nc(C#N)c(N3CCN(CC)CC3)o2)cc1 | -17.7%
69 | Cc1cc([N+](=O)[O-])ccc1N1C(=O)c2ccc(C(=O)Nc3ccccc3C(=O)O)cc2C1=O | 11%

Row | SMILES | hERG current change (%, negative = inhibition) at 1uM
70 | COc1ccc(-c2csc(NC(=O)c3ccoc3C)n2)cc1 | 17%
71 | CCN1CSC(=S)N(Cc2ccccc2)C1 | 9.5%
72 | CCN1C(=O)C(C(=O)NC(C)c2ccccc2)C2CC1(C)Oc1ccccc12 (stereo not drawn) | 1.51%
73 | COc1ccc2[nH]c(-c3ccccc3)cc2c1 | 12%
74 | CC(NC(=O)COC(=O)c1cc(Cl)nc(Cl)c1)c1ccccc1 (stereo not drawn) | 4.7%
75 | COc1ccc(Cl)cc1NC(=O)NCC1CCN(Cc2cc(C)ccc2C)CC1 | 0.244%
76 | CCOc1ccc(NC(=S)NC(=O)/C=C/c2ccc(Br)cc2)c([N+](=O)[O-])c1 | 10.5%
77 | O=C(c1cc2nc(-c3ccc(F)cc3)cc(C(F)(F)F)n2n1)N1CCOCC1 | 10.2%
78 | CCCCNC(=O)c1ccc(NC(=O)C2CCCO2)cc1 (stereo not drawn) | 13.5%
79 | COc1ccc(C(CNC(=O)COc2cccc(C)c2)N2CCCC2)cc1 (stereo not drawn) | 6.48%
80 | COc1ccccc1N1CCN(C(=O)c2cccc(Oc3ccccc3)c2)CC1.Cl | 2.65%
81 | CCOC(=O)C1=C2c3cc(OC)c(OC)cc3CC(C)(C)N2C(=O)C1=O | 11.8%
82 | Cc1ccc(NC(=S)NC2CCN(Cc3ccccc3)CC2)cc1 | -6.43%
83 | Cc1ccc(-c2csc3nc(-c4ccncc4)[nH]c(=O)c23)cc1 | -2.12%
84 | Cc1ccc(NC(=O)NC2CC(=O)N(c3ccc4c(c3)OCCO4)C2)cc1C (stereo not drawn) | 19.3%
85 | Cc1cc(N2CCN(c3ccccn3)CC2)n2cc(-c3ccccc3)nc2n1 | -65.4%
86 | Brc1ccc2nc(N3CCCC3)sc2c1 | 8.86%
87 | O=c1[nH][nH]c(C(F)(F)F)c1C=NCc1ccc(Cl)cc1 | 9.01%
88 | CN1CCN(C(=O)/C(=C/c2ccc(N(C)C)cc2)NC(=O)c2ccccc2)CC1 | 7.18%
89 | O=C1CCCN1CC(=O)N1CCCC(Nc2cccc(F)c2)C1 (stereo not drawn) | 2.66%
90 | COc1ccc(N(C(=O)c2csnn2)C(C(=O)NC2CCCC2)c2cccs2)cc1 (stereo not drawn) | 5.63%
